In PubChem BioAssay AID1347165 (National Center for Advancing Translational Sciences (NCATS), 2019):
Values joined by “and” are separate entries in the source; they are usually repeats but may differ in a detail not shown here. Equal entries are not always repeated. The whole screen tested about 220,000 compounds, of which about 5,700 (2.6%) were called active. The shares of active, inactive and inconclusive entries below differ from those in the screen. The call rests on the fitted dose curve; in most records, active means well fitted inhibition curve with a large enough effect; inconclusive means small, poorly fitted or top-dose-only effect; inactive means no such curve, though single readings can be large or run the other way. A potency beside an inconclusive call is a rough fit, not a confirmed value.

biological target: Lysine-specific demethylase 5B (Homo sapiens) (UniProt Q9UGL1); experiment: Primary screen for KDM5B Histone Demethylases FDH-coupled qHTS; conditions: FDH-coupled NADH fluorescence (FDH is formaldehyde dehydrogenase); activity change, negative = inhibition: at 57.7 µM (top of the series) unless noted; further: nearly all actives have a fitted effect of over 70% in size; on activity change, negative = inhibition: 0% is about no effect
Chain of UniProt Q9UGL1 (Q9UGL1 whole entry, looked up): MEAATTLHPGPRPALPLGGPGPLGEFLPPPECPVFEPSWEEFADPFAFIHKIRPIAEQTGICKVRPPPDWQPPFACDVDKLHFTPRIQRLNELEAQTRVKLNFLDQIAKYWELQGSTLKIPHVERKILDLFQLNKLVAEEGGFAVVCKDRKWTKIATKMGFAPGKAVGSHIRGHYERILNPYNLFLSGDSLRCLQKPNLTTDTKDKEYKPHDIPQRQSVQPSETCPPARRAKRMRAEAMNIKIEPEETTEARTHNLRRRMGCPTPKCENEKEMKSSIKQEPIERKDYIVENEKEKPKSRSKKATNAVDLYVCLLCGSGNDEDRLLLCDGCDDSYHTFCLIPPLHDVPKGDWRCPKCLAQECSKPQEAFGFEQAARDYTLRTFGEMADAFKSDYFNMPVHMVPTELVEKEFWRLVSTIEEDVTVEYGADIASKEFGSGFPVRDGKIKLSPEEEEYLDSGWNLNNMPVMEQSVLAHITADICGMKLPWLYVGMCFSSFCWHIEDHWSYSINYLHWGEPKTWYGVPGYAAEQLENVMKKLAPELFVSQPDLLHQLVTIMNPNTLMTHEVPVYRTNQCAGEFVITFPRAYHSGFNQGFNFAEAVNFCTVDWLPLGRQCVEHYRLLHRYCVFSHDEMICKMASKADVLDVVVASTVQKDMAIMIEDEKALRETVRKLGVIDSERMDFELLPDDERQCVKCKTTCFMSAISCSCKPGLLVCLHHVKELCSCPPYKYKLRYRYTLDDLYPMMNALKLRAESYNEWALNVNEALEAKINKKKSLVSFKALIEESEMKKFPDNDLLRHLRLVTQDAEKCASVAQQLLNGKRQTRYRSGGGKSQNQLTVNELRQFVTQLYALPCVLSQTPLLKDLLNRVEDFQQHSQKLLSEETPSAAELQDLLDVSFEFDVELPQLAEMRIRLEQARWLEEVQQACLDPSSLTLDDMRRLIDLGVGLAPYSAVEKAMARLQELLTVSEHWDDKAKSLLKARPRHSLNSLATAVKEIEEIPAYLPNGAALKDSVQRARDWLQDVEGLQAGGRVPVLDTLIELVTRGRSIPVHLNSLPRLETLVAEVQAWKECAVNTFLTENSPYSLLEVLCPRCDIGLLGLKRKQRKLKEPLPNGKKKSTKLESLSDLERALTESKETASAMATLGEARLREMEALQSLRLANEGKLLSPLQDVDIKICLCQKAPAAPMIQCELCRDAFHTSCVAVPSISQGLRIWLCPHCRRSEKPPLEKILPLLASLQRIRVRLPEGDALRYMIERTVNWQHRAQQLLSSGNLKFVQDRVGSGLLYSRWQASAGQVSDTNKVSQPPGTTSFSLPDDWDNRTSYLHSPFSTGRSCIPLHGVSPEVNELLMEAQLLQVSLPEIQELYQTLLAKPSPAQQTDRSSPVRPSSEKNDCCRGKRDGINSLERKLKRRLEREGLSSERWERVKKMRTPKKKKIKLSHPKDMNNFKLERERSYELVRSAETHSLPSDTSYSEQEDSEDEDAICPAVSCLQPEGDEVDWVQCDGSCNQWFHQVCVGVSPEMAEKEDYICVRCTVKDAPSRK
Procedure, shortened: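 Coupled FDH/NAD⁺ fluorescence readout. KDM5BΔAP 200 nM final; compound titration, 10 min RT preincubation; substrate mix 12.5 µM H3K4me3, 25 µM 2-OG, 50 µM Fe(II), 100 µM ascorbate, 0.25 mM NAD⁺, 0.25 U/mL FDH; ΔRFU over 30 min.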
Potency means the concentration at half of the fitted maximal effect; tags describe the fitted curve by direction and shape.

Question: With COc1ccc(NC(=O)c2ccc3c(c2)N(Cc2cccc(Cl)c2)C(=O)c2ccccc2S3(=O)=O)cc1Cl as the molecule, how does the Potency read?
Answer: Its Potency is inconclusive: 31.6 µM [inhibitor, partial curve, poor fit].

Question: COc1ccc(C(=O)N2CCn3c(nnc3[C@@H]3C[C@@H](O)CN3C(C)C)C2)cn1 was tested. Which Potency did it give?
Answer: Its Potency is inconclusive: 31.6 µM [inhibitor, partial curve, poor fit].

Question: With O=C1CC2(CCN(Cc3ccc(C(F)(F)F)cc3)CC2)Oc2ccccc21 as the molecule, how does the Potency read?
Answer: Its Potency is inconclusive: 28.2 µM [inhibitor, single point].

Question: With O=C(NNC(=O)C1CCCc2ccccc21)c1ccc(F)cc1 (stereo unspecified) as the molecule, how does the “activity change, negative = inhibition” value read?
Answer: The value was inactive: -4.15%.

Question: For CC(C)N1C[C@H](O)C[C@H]1c1nnc2n1CCN(C(=O)c1cccnc1)CC2, which “activity change, negative = inhibition” value is on record?
Answer: Its value is inactive: -19.6%.

Question: With COc1cc(C(=O)N2CCc3c([nH]c4ccccc34)C2c2ccc(F)cc2)cc(OC)c1OC (stereo unspecified) as the molecule, how does the Potency read?
Answer: The Potency was inconclusive: 28.2 µM [inhibitor, partial curve, poor fit].

Question: For COc1ccc(-c2nc(CC(=O)NC3CCN(Cc4ccccc4)CC3)cs2)cc1, which “activity change, negative = inhibition” value is on record?
Answer: The value was inactive: 1.23%.

Question: How did the “activity change, negative = inhibition” value turn out when COc1cccc(-n2cnc3cc(C(=O)NC4CCCC4)ccc3c2=O)c1 was run?
Answer: Its value is inactive: 12.8%.

Question: For CSc1ccccc1NC(=O)c1cc(-c2ccc3c(c2)OCO3)on1, which Potency is on record?
Answer: Its Potency is inconclusive: 25.1 µM [inhibitor, single point].

Question: COC(=O)c1ccc(Nc2nc(-c3ccc(C)cc3)nc3ccccc23)cc1 was tested. Which Potency did it give?
Answer: The Potency was inconclusive: 39.8 µM [inhibitor, partial curve, poor fit] and inconclusive: 28.2 µM [inhibitor, partial curve, poor fit].

Question: For CCOC(=O)c1sc2ccccc2c1S(=O)(=O)N1CCN(c2ccccc2F)CC1, which Potency is on record?
Answer: The Potency was inconclusive: 35.5 µM [inhibitor, single point].

Question: For COc1ccc(-c2cc(C(=O)NCc3ccnc(N)c3)c3c(c2)ncn3C)cc1, which Potency is on record?
Answer: The Potency was active: 39.8 µM.

Question: For O=C(Nc1ccccc1)c1oc2ccccc2c1NC(=O)c1nn(-c2cccc(Cl)c2)ccc1=O, which “activity change, negative = inhibition” value is on record?
Answer: The value was inactive: 17.7%.

Question: Which Potency does the source give for CC(=O)N1CCN(c2ncccc2CNC(=O)C2COc3ccccc3C2)CC1 (stereo unspecified) here?
Answer: Its Potency is inconclusive: 17.8 µM [inhibitor, partial curve, poor fit].

Question: With Cc1ccc(-n2nc3c(N4CCC(C(=O)NCCc5ccccc5)CC4)nnc(C)c3c2C)cc1 as the molecule, how does the Potency read?
Answer: Its Potency is inconclusive: 15.8 µM [inhibitor, partial curve, poor fit].

Question: With COc1cccc2cc(C(=O)NCCN3CCOCC3)c(=O)oc12 as the molecule, how does the Potency read?
Answer: Its Potency is inconclusive: 39.8 µM [inhibitor, partial curve, poor fit].

Question: O=C(NCc1ccc(F)cc1)Nc1cccc(-c2ccc(N3CCOCC3)nn2)c1 was tested. Which “activity change, negative = inhibition” value did it give?
Answer: The value was inactive: -19.9%.

Question: CCOC(=O)c1ccccc1NC(=O)COC(=O)CC1CCCCC1 was tested. Which Potency did it give?
Answer: The Potency was inconclusive: 25.1 µM [inhibitor, single point].

Question: CCCS(=O)(=O)NCC1Cn2cccc2C(=O)N1CCOC (stereo unspecified) was tested. Which Potency did it give?
Answer: Its Potency is inconclusive: 2.24 µM [inhibitor, full curve].

Question: For CCN(CC)C(=O)CSc1nc(-c2ccccc2)cc(-c2ccc(OC)cc2)c1C#N, which Potency is on record?
Answer: Its Potency is inconclusive: 35.5 µM [inhibitor, partial curve, poor fit].

Question: Which “activity change, negative = inhibition” value does the source give for Clc1ccccc1C1(c2ccnc(C3CCCC3)n2)CCNCC1 here?
Answer: The value was inactive: -26.6%.

Question: How did the Potency turn out when CC1(C)CC(=O)C2=C(C1)c1c(ccc3ccccc13)NC2c1ccco1 (stereo unspecified) was run?
Answer: Its Potency is inconclusive: 1.78 µM [inhibitor, full curve, poor fit].

Question: Which Potency does the source give for Cc1cc(C(=O)N2CCCC3(CCNCC3)CC2)c2cnn(C(C)C)c2n1 here?
Answer: The Potency was inconclusive: 25.1 µM [inhibitor, partial curve, poor fit].

Question: Which Potency does the source give for Cc1ccccc1-c1ccnc2c(-c3ccc(F)cc3)c(C)nn12 here?
Answer: Its Potency is inconclusive: 1.12 µM [inhibitor, full curve, poor fit].

Question: How did the Potency turn out when Cc1ccc(-c2cc(N)n(Cc3cccc(Cl)c3)n2)cc1 was run?
Answer: The Potency was inconclusive: 7.08 µM [inhibitor, partial curve, poor fit].

Question: How did the Potency turn out when COC(=O)CNC(c1ccccc1)c1cc(Br)ccc1NC(=O)c1ccc(Cl)cc1 (stereo unspecified) was run?
Answer: Its Potency is inconclusive: 17.8 µM [inhibitor, partial curve, poor fit].

Question: For Cc1nc2ccn(Cc3ccccc3)c(=O)c2cc1C(=O)Nc1ccc(F)cc1Cl, which Potency is on record?
Answer: The Potency was inconclusive: 31.6 µM [inhibitor, partial curve, poor fit].

Question: Which “activity change, negative = inhibition” value does the source give for CN1CCN(Cc2nc(C3(O)CCN(C(=O)N4CCOCC4)CC3)cs2)CC1 here?
Answer: The value was inactive: 12.3% [at 86.2 µM].

Question: How did the Potency turn out when Cn1cc(CN2C[C@H](O)C[C@H]2c2nc(-c3cccc([N+](=O)[O-])c3)no2)c2ccccc21 was run?
Answer: The Potency was inconclusive: 35.5 µM [inhibitor, single point].

Question: How did the Potency turn out when COc1nc2ccccc2nc1N1CCC(C(=O)Nc2ccc(C)c(C)c2)CC1 was run?
Answer: Its Potency is inconclusive: 39.8 µM [inhibitor, single point].

Question: For CCOC(=O)c1ccccc1NC(=O)c1c(-c2ccccc2)noc1C, which Potency is on record?
Answer: Its Potency is inconclusive: 15.8 µM [inhibitor, partial curve, poor fit].

Question: Which “activity change, negative = inhibition” value does the source give for O=[n+]1cc(-c2cccc(C(F)(F)F)c2)n([O-])c2c1CCCC2 here?
Answer: Its value is inactive: -7.83%.

Question: Cc1ccccc1-c1cnc2[nH]cc(CC(=O)NC3CC3)c2c1 was tested. Which Potency did it give?
Answer: Its Potency is active: 28.2 µM.

Question: With COc1ccc(NC(=O)c2cc3ccccc3oc2=O)cc1OC as the molecule, how does the Potency read?
Answer: Its Potency is inconclusive: 39.8 µM [inhibitor, single point].

Question: With CN(C)C(=O)c1ccc2cncn2c1 as the molecule, how does the Potency read?
Answer: The Potency was active: 31.6 µM.

Question: Which Potency does the source give for C[S+](=O)([O-])N1CC2(Cc3ccccc31)CN(C(=O)Cc1cccc(Cl)c1)C2 here?
Answer: Its Potency is inconclusive: 39.8 µM [inhibitor, single point].

Question: For N=C1C(c2nc3ccccc3c(=O)[nH]2)=C(O)CN1c1cccc(Cl)c1Cl, which “activity change, negative = inhibition” value is on record?
Answer: Its value is inactive: -16.2%.

Question: How did the “activity change, negative = inhibition” value turn out when CC(=O)Nc1cccc(C(=O)NC2CCCN(c3cc(-c4ccc(Cl)cc4)[nH]n3)C2)c1 (stereo unspecified) was run?
Answer: Its value is inactive: -16%.

Question: COc1ccc(-c2noc(-c3cccn3CC(=O)Nc3cccc(C)c3)n2)cc1F was tested. Which “activity change, negative = inhibition” value did it give?
Answer: Its value is inactive: 19.7%.

Question: Which Potency does the source give for CCN1CCN(C(=O)C2CCCN(Cc3ccncc3)CCC(=O)NCC2)CC1 (stereo unspecified) here?
Answer: The Potency was inconclusive: 14.1 µM [inhibitor, single point].

Question: How did the Potency turn out when CN(C)c1ncc2c(n1)C(C)(C(=O)NCc1ccc3c(c1)OCO3)CCC2 (stereo unspecified) was run?
Answer: Its Potency is active: 31.6 µM.
